Assay results: PubChem BioAssay AID488969 (Vanderbilt High Throughput Screening Facility, 2010)
In all, about 110,000 compounds were measured (“z-score”: median about -0.1, highest 2% from about 2 on). The list shows a part of the results. Activity calls are given as the source filed them.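 How the source made its calls: active means z-score in the third read window above 3 or below -3; inactive means the rest.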 Non-standard residues stand in square brackets, D forms with d. Residues, ends and D or L forms follow the SMILES beside them. *: point of attachment. Hyp = O=C(O)[CH]1C[CH](O)CN1; Cbz = O=C(OCc1ccccc1)*; OBn = c1ccc(CO*)cc1

The compounds below were run against Metabotropic glutamate receptor 8 (Rattus norvegicus) (UniProt P70579) (assay: rat mGluR8 modulators via GIRK flux, primary screen, cell-based, thallium flux, HTS (AID 488969)). Details: HEK293 rat mGluR8, GIRK (G protein-gated inwardly rectifying potassium channel) thallium flux, FluoZin2; at 10 µM; stronger effect = higher value; submaximal glutamate (EC20) added with thallium.
UniProt P70579, sequence (P70579 whole entry, looked up): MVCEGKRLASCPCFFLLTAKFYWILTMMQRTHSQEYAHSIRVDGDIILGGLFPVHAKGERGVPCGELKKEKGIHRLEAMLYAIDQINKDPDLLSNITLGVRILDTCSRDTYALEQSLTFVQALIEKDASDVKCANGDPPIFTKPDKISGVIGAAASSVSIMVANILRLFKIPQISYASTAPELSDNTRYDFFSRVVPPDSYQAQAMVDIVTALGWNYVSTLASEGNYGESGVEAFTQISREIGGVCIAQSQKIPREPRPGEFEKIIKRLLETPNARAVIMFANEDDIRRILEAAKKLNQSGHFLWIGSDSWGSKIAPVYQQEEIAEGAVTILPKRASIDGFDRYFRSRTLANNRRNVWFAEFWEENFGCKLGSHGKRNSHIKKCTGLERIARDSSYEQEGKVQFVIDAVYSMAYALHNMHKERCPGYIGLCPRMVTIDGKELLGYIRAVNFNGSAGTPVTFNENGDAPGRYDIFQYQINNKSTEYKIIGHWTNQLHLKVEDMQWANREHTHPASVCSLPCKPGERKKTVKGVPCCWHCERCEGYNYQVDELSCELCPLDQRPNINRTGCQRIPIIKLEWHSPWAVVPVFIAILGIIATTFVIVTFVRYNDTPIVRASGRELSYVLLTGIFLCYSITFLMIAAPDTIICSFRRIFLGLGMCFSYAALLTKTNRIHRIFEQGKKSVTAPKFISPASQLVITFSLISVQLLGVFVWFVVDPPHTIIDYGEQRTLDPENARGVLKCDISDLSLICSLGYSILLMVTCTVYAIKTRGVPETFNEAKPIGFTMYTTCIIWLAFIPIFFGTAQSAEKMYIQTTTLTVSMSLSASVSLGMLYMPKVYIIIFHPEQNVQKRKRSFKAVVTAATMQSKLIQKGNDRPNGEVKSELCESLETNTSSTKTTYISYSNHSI

| SMILES | z-score |
| --- | --- |
| CC1=C(C(=O)Nc2ccccc2)C(c2ccncc2)C(C#N)=C(SCC(=O)NC(C)C)N1 (stereo not drawn) | 0.689 |
| COc1ccc(C(=O)Nc2ccc(SC(F)F)cc2)cc1 | -0.199 |
| Cc1cccc(N2CC(C(=O)Nc3ccc4c(c3)OCO4)CC2=O)c1C (stereo not drawn) | 0.145 |
| COc1ccccc1C(=O)NC(=S)Nc1ccc(N2CCCC2)cc1 | -0.0718 |
| Cc1ccc(S(=O)(=O)NC(C(=O)Oc2ccc3c(C(F)(F)F)cc(=O)oc3c2)c2ccccc2)cc1 (stereo not drawn) | -0.289 |
| CC1CCN(S(=O)(=O)c2ccc3c(c2)CCN3C(=O)CCC(=O)O)CC1 | 0.0313 |
| O=C(O)C(=O)/C(=C\c1cccc2ccccc12)c1ccc2ccccc2n1 | 1.04 |
| O=C(Nc1ccc(F)cc1)C(c1ccccc1)N1CCN(S(=O)(=O)c2ccc3ccccc3c2)CC1 (stereo not drawn) | 0.223 |
| CCOC(=O)/C(C#N)=C/C1=C(N2CCCC2)CC(C)(CC)OC1 (stereo not drawn) | -0.501 |
| Cc1cccc(NC(=S)NNC(=O)c2ccco2)c1 | 0.0496 |
| COC(=O)[C@@H](NC(=O)NCc1ccco1)C(C)C | -1.12 |
| COc1cccc(/C=C2\N=C(c3c(-c4ccccc4)noc3C)OC2=O)c1OC | -0.503 |
| O=C(CSc1nc2ccccc2s1)N1CCCCC1 | 0.552 |
| CC(=O)c1cccc(NC(=O)NCc2cccnc2)c1 | 0.165 |
| COC(=O)c1ccccc1NC(=O)C1CC(=O)N(c2ccc(C)cc2)C1 (stereo not drawn) | -0.265 |
| COc1cc2[nH]c(=S)n(N(C(C)=O)C(C)=O)c(=O)c2cc1OC | -0.0747 |
| CCCOc1ccc(C2C(C(=O)c3ccc(C)o3)=C(O)C(=O)N2CCCn2ccnc2)cc1 (stereo not drawn) | 0.368 |
| O=C(Nc1ccc2nc(-c3ccccn3)[nH]c2c1)C1CCCCC1 | 0.0178 |
| O=C(Nc1cccc(S(=O)(=O)N2CCOCC2)c1)c1ccco1 | -0.177 |
| Cc1ccc(Nc2nc(NCCCN3CCOCC3)nc(N)c2[N+](=O)[O-])cc1C | 0.122 |
| O=C(NC(=S)Nc1cc(C(F)(F)F)ccc1Cl)c1ccccc1 | 1.04 |
| COc1cc(/C=C/C(=O)c2ccc(Cl)s2)cc(OC)c1O | -0.613 |

| SMILES | z-score |
| --- | --- |
| CCOC(=O)c1cccc(NC(=O)CSc2nc(N)cc(N)n2)c1 | -0.636 |
| CCOCCCNC(=O)C1CCCN(S(=O)(=O)CC)C1 (stereo not drawn) | -0.453 |
| O=S(=O)(c1ccc(Cl)cc1)N1CCN(C2CCN(Cc3ccccc3)CC2)CC1 | -0.626 |
| CCn1c(=O)cc(SCC(=O)Nc2ccc3c(c2)OCO3)c2ccccc21 | -0.717 |
| O=C(Cn1cnc2c(nnn2-c2ccccc2)c1=O)N1CCC(Cc2ccccc2)CC1 | -0.258 |
| CCOC(=O)c1[nH]c2ccccc2c1CCCN1C(=O)c2ccccc2C1=O | 0.0197 |
| CCc1cccc(NC(=O)CN(C)S(=O)(=O)c2cccc3nsnc23)c1 | 0.803 |
| CCOC(=O)C1CCCN(S(=O)(=O)c2cc(OCC(N)=O)c(C)cc2Cl)C1 (stereo not drawn) | -0.472 |
| C=CCN1C(=O)N(/C=C/C)c2cccc3cccc1c23 | -0.832 |
| O=C(Nc1ccc(NC(=O)C2CC2)nc1)c1ccncc1 | 0.413 |
| COc1ccc(N(CC(=O)Nc2ccc3c(c2)OCO3)S(=O)(=O)c2c(C)nn(C)c2C)cc1 | -0.373 |
| CCOC(=O)N/N=C/c1ccc(OCCSc2ccc(Cl)cc2)c(OC)c1 | 0.417 |
| Cc1nn(-c2ccccc2)c(C)c1/C=N/NC(=O)c1cc(-c2cccs2)[nH]n1 | -0.434 |
| Cc1ccc(Cn2c(SCC(=O)Nc3cc(C)on3)nc3ccccc3c2=O)cc1 | 1.07 |
| O=C(Nc1nnc(-c2ccco2)o1)C1CCCCC1 | -0.315 |
| CC(NC(=O)CNC(=O)OCc1ccccc1)C(=O)N1CC(O)CC1C(=O)OCc1ccccc1 (stereo not drawn) (Cbz-Gly-Ala-[Hyp]-OBn; configuration not given here) | -0.00981 |
| C/C(=N\NC(=O)c1nc2ccccn2c1C)c1ccc2c(c1)OCO2 | -0.032 |
| O=C1CC(c2cccs2)c2cc3c(cc2N1)OCCO3 (stereo not drawn) | -0.318 |
| Cc1cccc(NC(=O)CCSc2nncn2C)c1 | 1.44 |
| COC(=O)c1ccc(C(=O)OC)c(NC(=O)CN(c2ccc3c(c2)OCO3)S(C)(=O)=O)c1 | -0.361 |
| CCO/N=C(/C)c1c(O)cc(-c2ccccc2)n(-c2ccccc2)c1=O | -0.176 |
| CC(c1nc2ccccc2c(=O)[nH]1)N1CCN(C)CC1 (stereo not drawn) | 0.795 |

| SMILES | z-score |
| --- | --- |
| COc1ccc(N(CC(=O)Nc2cccc(C(F)(F)F)c2)S(C)(=O)=O)cc1 | 1.93 |
| Cc1ccc(C2C(C#N)=C(N)Oc3c2c(=O)n(C)c(=O)n3C)cc1 (stereo not drawn) | -0.275 |
| O=C(Nc1ccc2nn(-c3ccccc3)nc2c1)c1cccnc1 | -0.646 |
| COc1ccc(C(=O)Nc2ccccc2C(=O)O)cc1Cl | -1.43 |
| c1ccc2[nH]c(-c3ccnc4ccccc34)nc2c1 | 0.826 |
| Cn1nnc2c(NCc3ccco3)nccc21 | 1.65 |
| O=C(CSc1cn(CCNC(=O)c2cccs2)c2ccccc12)NCc1ccccc1 | -0.19 |
| COc1cc2nc(SCC(=O)NCc3ccco3)n(Cc3ccc(Cl)cc3)c(=O)c2cc1OC | 0.933 |
| COCCn1c(SCC(=O)c2ccc3c(c2)OCCO3)nnc1C(C)C | -0.149 |
| CCOC(=O)c1c(NC(=O)c2ccccc2)sc2c(O)c(CN(CC)CC)ccc12 | -0.0937 |
| CN1CCN(CC(O)c2ccccc2)CC1 (stereo not drawn) | 0.0201 |
| O=C1NC(=NCc2ccccc2)S/C1=C/c1ccc(O)cc1 | -0.0843 |
| CCSc1nc2c(c(=O)[nH]1)C(c1ccccn1)C1=C(CC(C)(C)CC1=O)N2 (stereo not drawn) | -0.818 |
| CCOC(=O)c1ccccc1NC(=O)CN(c1ccccc1OCC)S(C)(=O)=O | -0.699 |
| COc1ccc(/C=C2\CCc3ccccc3C2=O)cc1Cn1cccn1 | 0.356 |
| COc1ccc(OC)c(/C=N/NC(=O)c2cc3c(OC)c(OC)ccc3[nH]2)c1 | -0.17 |
| O=C(NCc1ccco1)C1CCCN(S(=O)(=O)c2ccc(Cl)cc2)C1 (stereo not drawn) | -0.144 |
| O=C(Nc1ccc(Cc2ccncc2)cc1)c1ccc(S(=O)(=O)N2CCOCC2)cc1 | -0.273 |
| CCCCn1c(SCc2ccc(Cl)cc2)nc2c1c(=O)[nH]c(=O)n2C | 0.315 |
| CCOc1ccc(Br)cc1/C=N/NC(=O)c1ccncc1 | -0.159 |
| Nc1nc(Cl)nc(N(c2ccccc2)c2ccccc2)n1 | -0.0225 |
| O=C(CCC(=O)N/N=C/c1ccccc1O)NCc1ccccc1 | -0.229 |

| SMILES | z-score |
| --- | --- |
| CCCC(=O)c1c[nH]c(C(=O)NCCc2ccccn2)c1 | -0.0274 |
| COc1ccccc1OCC(=O)Nc1cccc(N(C)S(C)(=O)=O)c1 | -0.338 |
| O=C(Nc1nc(-c2ccccc2)c(-c2ccccc2)o1)c1ccc(F)cc1 | active: 13.5 |
| CC(=O)c1cccc(NC(=O)C2C3C=CC(C4CC34)C2C(=O)O)c1 (stereo not drawn) | -0.0714 |
| CN(O)/C=C1\C(=O)Nc2ccccc21 | -0.11 |
| CCN(CC)c1ccc(/C=N/N2C(=O)c3ccccc3C2=O)cc1 | 0.0646 |
| CCOC(=O)CN1CC23C=CC(O2)C(C(=O)O)C3C1=O (stereo not drawn) | -0.832 |
| CC(C)(C)c1ccc(C(=O)c2c[nH]c(C(=O)NCCCn3ccnc3)c2)cc1 | -0.375 |
| COc1cccc(-c2nc(NCc3ccco3)c3ccccc3n2)c1O | 0.149 |
| O=C(CSc1nnc2ccccn12)Nc1cccc(S(=O)(=O)N2CCOCC2)c1 | -0.299 |
| CC(=O)Oc1ccc(NC(=O)CCC2CCCCC2)c(C(=O)O)c1 | -0.612 |
| Cc1cc(NC(=O)CCSc2nc(-c3ccco3)cc(C(F)(F)F)n2)n(-c2ccccc2)n1 | -0.547 |
| CCOC(=O)N1CCC(NC(=O)C2CCCN(Cc3nc(-c4cccc(Cl)c4)oc3C)C2)CC1 (stereo not drawn) | -0.647 |
| Cc1nc(NC(=O)CN(C)S(=O)(=O)c2ccc(Cl)cc2)sc1C | 0.149 |
| CCn1nc(C(=O)OC2CCOC2=O)c2ccccc2c1=O (stereo not drawn) | 1.16 |
| Cc1ccc(NC(=O)N2CCCN(Cc3ccc(F)cc3)C2)cc1C | -0.435 |
| O=C(COC(=O)c1ccccc1-c1ccccc1[N+](=O)[O-])c1ccccc1 | -0.126 |
| Cc1cc(=O)[nH]c(SCCCOc2ccc3c(c2)CCC3)n1 | -0.838 |
| Cc1cccc(NC(=O)CSc2nnc(-c3ccco3)o2)c1C | 0.0721 |
| COC(=O)c1cc(OC)c(OC)cc1NC(=O)CN1C(=O)c2ccccc2C1=O | -0.131 |
| COc1ccc(OC)c(/C=N/NC(=O)Cc2nc3ccccc3[nH]2)c1 | 0.0716 |
| COc1ccccc1OCC(=O)Nc1cccc(C(=O)N2CCOCC2)c1 | 0.0768 |

| SMILES | z-score |
| --- | --- |
| N#CCSc1nnc(CNc2ccc(F)cc2)o1 | 0.394 |
| Cn1c(=O)c2c(nc(SCCN3CCCCC3)n2Cc2ccc(Cl)cc2)n(C)c1=O | -0.743 |
| CCOc1c2ccc(C(=O)NCc3ccc(C(F)(F)F)cc3C(F)(F)F)cc2nn1C | -0.0208 |
| Nn1c(SCC(=O)Nc2ccccc2F)nc2ccccc2c1=O | -0.66 |
| Cc1ccc(-c2csc(N(Cc3ccco3)C(=O)c3cccs3)n2)cc1 | -0.484 |
| Cc1cccc(C(=O)NNC2=C(C(=O)C(F)(F)F)CCC2)c1O | -0.745 |
| CCN(CC)CCNC(=O)c1cc(Sc2nnc(C)s2)nc2ccccc12 | 0.0421 |
| O=C(O)COc1cccc(NC(=O)C2CCCO2)c1 (stereo not drawn) | 0.711 |
| Cc1ccccc1NC(=O)CSc1nnc(-c2ccccc2)n1-c1ccccc1 | -0.183 |
| CC(C)(CO)NC(=O)CCCOc1ccc(Cl)cc1Cl | -0.125 |
| O=C(CC1N=C2c3ccccc3N=C(SCc3ccccc3Cl)N2C1=O)NCc1ccco1 (stereo not drawn) | -0.146 |
| Cc1cccc(C)c1NC(=O)CN1C(=O)S/C(=C\c2cccn2-c2cccc(C(=O)O)c2)C1=O | -0.39 |
| COc1ccccc1NS(=O)(=O)c1cccc(C(=O)NN=C2CCCCCC2)c1 | 0.00957 |
| CCOc1ccc(C(=O)N/N=C(\c2ccccc2)c2ccccn2)cc1 | -0.453 |
| O=S(=O)(Cc1ccc(Cl)cc1)N1CCCC1 | 0.31 |
| CCCCC(=O)Nc1nnn(CCC)n1 | 0.274 |
| Cc1nn(C)cc1/C=N/NC(=O)c1sc2ccccc2c1Cl | 0.226 |
| O=C(CSc1nnc(-c2cnccn2)n1Cc1ccco1)c1ccc(Cl)cc1 | -0.74 |
| CC1(C)CCC(C)(C)NC(=S)N1 | 0.163 |
| CCOc1cnc(-c2ccc(Cl)cc2)o1 | -0.137 |
